# Data published in PubChem BioAssay AID1347071 (National Center for Advancing Translational Sciences (NCATS), 2019).
# The whole screen tested about 410,000 compounds, of which about 260 (0.063%) were called active. The shares of active, inactive and inconclusive entries below differ from those in the screen. Calls follow the shape of the dose curve; as a rule, active = well fitted activation curve with a large enough effect; inconclusive = small, poorly fitted or top-dose-only effect; inactive = no such curve, though single readings can be large or run the other way. Potencies of inconclusive entries are left out as doubtful fits.
# Assay: qHTS for compounds that reverse cellular toxicity of Amyloid beta (A-beta) peptide in yeast: Primary Screen; also: nearly all actives have a fitted effect of over 55% in size
# Details: yeast expressing A-beta42, growth rescue, OD600, 48 h; growth rescue: at 46.1 µM (top of the series), 0% DMSO, 100% iron-clioquinol control
# Procedure, shortened: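 Yeast A-beta toxicity model in growth medium with pinned compounds, 48 h at 30 C; growth read as absorbance at 600 nm. Normalized to FeCl3/clioquinol equimolar mix (positive) and DMSO (negative).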
# Potency is read from the fitted curve at half-maximal effect; tags tell the direction and shape of the fitted curve.
SMILES,Potency,growth rescue
COc1ccc(NC(=S)NC(=O)Cc2ccccc2)cc1,"inconclusive [activator, partial curve, poor fit]",
Cc1nn(CCCC(=O)NCCc2ccc(Cl)cc2)c(=O)c2c1sc1ccccc12,,inactive: 10.6%
Cc1ccc(C)c(S(=O)(=O)N2CCN(C(=O)CCC(=O)NCc3ccc(Cl)cc3Cl)CC2)c1,"inconclusive [activator, partial curve]",
COc1ccc(O)cc1,,inactive: -12.1%
Cc1cccc(NC(=S)NNc2ncc(C(F)(F)F)cc2Cl)c1,"inconclusive [activator, single point]",
COC(=O)c1ccc(Nc2cc(C)nc(-c3ccccc3O)n2)cc1,,inactive: 2.1%
CC(C)N(C(=O)[C@H]1C[C@H](CC(=O)NCc2ccco2)C(=O)N2CCc3c([nH]c4ccc(Cl)cc34)[C@]12C)C(C)C,,inactive: 8.37%
Cc1scc(C(=O)NNC(=S)NCc2ccccc2)c1C,"inconclusive [activator, partial curve]",
Cc1cc(-c2ccccc2)nc(N/N=C/c2ccccc2)n1,"inconclusive [activator, single point]",
Cc1cc(C(F)(F)F)n2[nH]c(=O)c(N=Nc3ccccc3)c2n1,"inconclusive [activator, single point]",
Cc1ccccc1NC(=S)c1nc2ccccc2[nH]1,"inconclusive [activator, partial curve, poor fit]",
CN(C(=O)Nc1ccc(Cl)c(Cl)c1)c1ccccc1C(=O)O,,inactive: -4.9%
Cc1ccc(C(=O)OCC(=O)Nc2cccc(S(=O)(=O)N3CCCCC3)c2)s1,"inconclusive [activator, single point]",
Cc1cc(Br)ccc1NC(=S)NC1CCCC1,"inconclusive [activator, partial curve, poor fit]",
Cc1cc(/C=C/C(=O)O)c(C)n1-c1ccc(Cl)cc1,,inactive: 1.58%
O=C1C=C(O)c2cccc3cccc1c23,"inconclusive [activator, single point]",
CCCCOc1ccc(CNC(=O)CN2CCSc3ccccc32)cc1,"inconclusive [activator, single point]",
Cc1ccc(OCC(=O)NC2CC(C)(C)NC(C)(C)C2)c(C)c1,"inconclusive [activator, single point]",
O=C(NCCc1cccs1)c1ccc(Cn2c(SCc3ccc(F)cc3)nc3cccnc32)cc1,,inactive: 4.39%
CCNC(=S)Nc1cc2oc3ccccc3c2cc1OC,"inconclusive [activator, partial curve, poor fit]",
Cc1onc(-c2ccccc2)c1C(=O)NNC(=S)NC(=O)c1ccc2c(c1)OCO2,"inconclusive [activator, partial curve, poor fit]",
Cc1[nH]c(N=Nc2ccccc2)nc1N=Nc1ccccc1,"inconclusive [activator, single point]",
Cc1ccc(NC(=S)Nc2cc(C(=O)O)ccc2N2CC3CC(C2)c2cccc(=O)n2C3)cc1C (configuration not stated),"inconclusive [activator, single point]",
CN(C(=S)NC(=O)c1ccc(Cl)cc1)C1CCCCC1,"inconclusive [activator, full curve]",

SMILES,Potency,growth rescue
CCC(=O)NC(c1cccs1)c1ccc2cccnc2c1O (configuration not stated),"inconclusive [activator, single point]",
COc1cccc(Oc2ccc(C(F)(F)F)cc2N)c1,"inconclusive [activator, partial curve, poor fit]",
CCOC(=O)C1CCCN(c2c(C(=O)c3ccccc3)cnc3ccc(OC)cc23)C1 (configuration not stated),"inconclusive [activator, full curve]",
COc1ccccc1CN=c1c([N+](=O)[O-])nn(-c2ccc3c(c2)OCCO3)n1O,,inactive: 12.2%
FC(F)(F)c1ccccc1Cc1c(-c2ccccc2)nc2c3ccccc3ccn12,active: 12.6 µM,
O=C(Nc1nnc(C2COc3ccccc3O2)o1)c1ccc(F)cc1 (configuration not stated),"inconclusive [activator, partial curve, poor fit]",
CCOC(=O)c1[nH]c(C)c(C(=O)NCCCN2CCOCC2)c1C,,inconclusive: -35.1% [activator]
Cc1cc(NC(=O)C2CCN(S(=O)(=O)c3cnc[nH]3)CC2)ccc1Br,"inconclusive [activator, partial curve, poor fit]",
COc1ccc(C(C(=O)NC(C)(C)C)N(C(=O)CNC(=O)c2cccs2)c2ccc(NC(C)=O)cc2)cc1OC (configuration not stated),"inconclusive [activator, single point]",
C=CCn1c(SCc2ccc3c(c2)OCO3)nc2scc(-c3ccco3)c2c1=O,,inconclusive: -46.8% [activator]
CCOc1ccccc1NC(=S)NC(=O)c1ccco1,"inconclusive [activator, single point]",
O=[N+]([O-])c1ccc(Nc2ccc(F)cc2)nc1,,inactive: 10.9%
Cc1cccc(NC(=O)c2c(NC(=O)c3ccco3)sc3c2CCC(C(C)(C)C)C3)c1 (configuration not stated),,inactive: -10.3%
CCCCCCCc1n[nH]c(=S)n1Cc1ccccc1,"inconclusive [activator, partial curve, poor fit]",
CCC(C)NC(=O)c1[nH]c2cc(OC)ccc2c1Sc1ccc(C)cc1 (configuration not stated),,inactive: -0.348%
CC(C)c1cc(N2CCN(C(=O)c3ccco3)CC2)n2c(nc3ccccc32)c1C#N,,inactive: 4.59%
Cc1ccc2nc(CN3CCN(C(=O)Nc4cccc(C)c4C)CC3)oc2c1,,inactive: 0.591%
Cc1nc2c(-c3ccccc3)c(C)[nH]n2c(=O)c1Cc1ccc(C(C)C)cc1,,inactive: -17.6%
Cc1ccc(NC(=O)Cn2cc(S(=O)(=O)N3CCCC3)c(S(=O)(=O)N3CCCC3)c2)c(C)c1,,inactive: 1.56%
COc1ccc(C(=O)c2cn(CC(=O)Nc3ccc4c(c3)OCO4)c3ccc(OC)cc3c2=O)cc1,,inactive: 4.46%
CCC(c1ccc(O)c(O)c1)C(CC)c1ccc(O)c(O)c1 (configuration not stated),"inconclusive [activator, partial curve, poor fit]",
COc1cccc(CN2CCC(C(=O)N3CCN(Cc4ccc5c(c4)OCO5)CC3)CC2)c1,,inactive: -4.07%
O=C(CC(O)CCc1ccccc1)c1ccc(O)cc1 (configuration not stated),"inconclusive [activator, single point]",
O=C(N/N=C1/C(=O)c2cccc3cccc1c23)c1ccc(Cl)cc1,"inconclusive [activator, partial curve, poor fit]",

SMILES,Potency,growth rescue
CC(C)(C)c1ccc2c(c1)OC(C(=O)N/N=C\c1ccccn1)CO2 (configuration not stated),"inconclusive [activator, single point]",
O=C(COc1ccccc1)Nc1nc(-c2ccc(S(=O)(=O)N3CCOCC3)cc2)cs1,,inactive: 15%
O=C(OC1CCCCC1=O)c1ccc(S(=O)(=O)Nc2ccccc2)cc1 (configuration not stated),"inconclusive [activator, partial curve, poor fit]",
Cn1c(CNc2nc(-c3ccccc3)cs2)nnc1SCC(=O)c1ccccc1,"inconclusive [activator, partial curve, poor fit]",
CC(O)(c1ccccc1)c1nc(-c2ccccc2)cs1 (configuration not stated),"inconclusive [activator, partial curve]",
N#CC(C#N)=Cc1c[nH]c(=O)c(C#N)c1Nc1ccccc1,,inactive: -4.49%
Cc1nnc(SCc2c(Cl)cccc2Cl)s1,,inactive: 18.3%
Cc1c(Cl)ccc2sc(N3CCN(C(=O)CS(=O)(=O)c4ccccc4)CC3)nc12,active: 12.6 µM,
OC1CCN(c2cc(-c3ccccc3)nc3cc(-c4ccc(F)cc4)nn23)CC1,"inconclusive [activator, single point]",
C=C(C)COc1ccc(-c2nc(N)ncc2-c2ccccc2OC)c(O)c1,"inconclusive [activator, single point]",
COc1ccc(Cl)cc1NCCC(O)c1ccc(F)cc1 (configuration not stated),"inconclusive [activator, partial curve]",
C=C(C)CNC(=S)N/N=C(\C)c1ccc(Cl)s1,"inconclusive [activator, partial curve, poor fit]",
COc1ccccc1NC(=O)Cn1c(=O)n(-c2ccc(C)cc2)c(=O)c2c1cnn2C,,inactive: -0.325%
Cc1[nH]n(C2=NCCS2)c(=O)c1N=Nc1cccc(C(F)(F)F)c1,"inconclusive [activator, partial curve, poor fit]",
COc1ccc2c(Sc3ccc(Cl)cc3)c(C(=O)N3CCCCC3)[nH]c2c1,"inconclusive [activator, single point]",
COc1ccc(-c2nc3ccccc3n3c(-c4ccccc4)c4c(=O)n(C)c(=O)n(C)c4c23)cc1,,inactive: 0.744%
COc1cccc(CNC(=O)CCCc2nnc3n(C)c(=O)c4sccc4n23)c1,,inactive: -20.2%
CCCCCCC1CCC(C(=O)NC(C(=O)O)C(C)C)CC1 (configuration not stated),,inactive: 4.03%
O=C(NCc1ccc(Cl)cc1Cl)c1cccc(N2CCCS2(=O)=O)c1,,inactive: -11%
COC(=O)c1cc(Br)c(=O)n(-c2ccccn2)c1,"inconclusive [activator, partial curve]",
CCCOc1ccc(CNC(=O)c2cc3ccccn3n2)cc1,,inactive: -10.5%
CC(=O)Oc1ccc(/C=N/NC(=S)Nc2ccccc2)cc1,"inconclusive [activator, single point]",
CCN(C(=O)COC(=O)c1ccc(O)cc1)c1cccc2ccccc12,active: 7.94 µM,
COc1ccc(C(=O)NC(=S)N2CCC(C)CC2)cc1Br,"inconclusive [activator, partial curve, poor fit]",
